The source of these data is publication PMC12136788.

This is one part of the list.

B1: chr21:33032072:33032073:+_ENSG00000142168_ENST00000270142|hu_hu|motif|central (ssRNA)
RNA: GGGAGUUCUACAGUCCGACGAUCUGCACUGGGCCGUCGCCCUUCAGCACGCACACGGCCUUCGUCGCCAUAACUCGCGGGGCCACGCCGAGGUCCUGGUUCCGAGGACUGCAACGGAAACCCCAGACGCUGCAGGAGACUACGCAACAGAGGAUUGAGCAUCA
B2: 49195773_49196266_1005_3pUTR_ENSG00000196396_ENST00000371621|human|control|control (ssRNA)
RNA: GGGAGUUCUACAGUCCGACGAUCCUCGUGGGAAAGCUCCUUCCACUGAUCCUGCACGGAAGAGUCCCCCAUGAUGAAUUUGGCACCUUCGAUCACAGCCAGGUAGGAGAAGCGCAGCUGGUCGGCUGUCUGGAUCAGCCCCAUCAACAGAGGAUUGAGCAUCA
B3: chr5:80785125:80785126:-_ENSG00000145687_ENST00000509013|hu_hu|FALSE|FALSE (ssRNA)
RNA: GGGAGUUCUACAGUCCGACGAUCUGGCUGACUUCCUGGGACACCUCCAAGUGCCUGAAAGAACCCUGGUGGUACAGGACCUACUGGCAUGCCAUCUCCUGGGGGAAUGUUUCCUAGCACUGGACUGGGAGCUGCUGCAGCACUCAACAGAGGAUUGAGCAUCA
B4: chr14:59854306:59854307:+_ENSMUSG00000035469_ENSMUST00000043227|mus_mus|motif|central (ssRNA)
RNA: GGGAGUUCUACAGUCCGACGAUCUAAGAAAUGGACUCACAAGAAGCAAAUAUCCUUCAUAUAUUCCUACAGAGCACUGUCGGUGGUGUGGGGCUUUACCUGCAGAUCACCGCACCCACAGUGCCCCAGAGCUCUCACACCUAGCAACAGAGGAUUGAGCAUCA
B5: 13520199_13520319_5787_CDS_ENSMUSG00000020576_ENSMUST00000042953|mouse|control|control (ssRNA)
RNA: GGGAGUUCUACAGUCCGACGAUCAGCCAAGGCAUCUGGAUAGGUGGCCUGAGAACCACGACCUUCUUGGGGGUCCUCUUCUGAAUUUCUUUUCCUUGGCUUCUCUAUGAAAUGCUUGAUUGUCUUAAUGGCCUUUCUGGUCAUCAACAGAGGAUUGAGCAUCA
B6: chrX:71099370:71099371:-_ENSMUSG00000031391_ENSMUST00000102871|mus_hu|motif|central (ssRNA)
RNA: GGGAGUUCUACAGUCCGACGAUCUUUAUUUUUCCUGGGAUGGGUUCAUCAAAGCUAAUUGCUAUCAAUCCUAGAAACCACCGGGGGACUCAGACAUCUGCCUACACACUAGUGGCGUAAAGGGAAGGACAGGGGUACAAACUUCAACAGAGGAUUGAGCAUCA
B7: chr11:86935578:86935579:+_ENSMUSG00000020492_ENSMUST00000020794|mus_hu|FALSE|FALSE (ssRNA)
RNA: GGGAGUUCUACAGUCCGACGAUCUAAUCUCUCUCAUGAAAGAUAUCAUUAUCCAGUCAUUGAAGCCAAACCCCCUUCACCAGCCCCCAAUCUCUAGACAUCAAGGGUUAACAAGACAUCUUCCUAAAUUUCUCCGGAAUUAAGCAACAGAGGAUUGAGCAUCA
B8: chr4:82449818:82449819:-_ENSMUSG00000028403_ENSMUST00000030110|mus_hu|motif|central (ssRNA)
RNA: GGGAGUUCUACAGUCCGACGAUCUACAUUUCUAUGUUUUGUAAUAAAUUGGUAAUUUCAAAGUAACAGCUUUUCCAAUUCGGAGGAAUUACUCUGCCAAAAUAAGGUUUAAAAUAAAAUACAUAAAAUGGCUUAGUUUAUCCUCAACAGAGGAUUGAGCAUCA
B9: chr2:198351390:198351391:-_ENSG00000144381_ENST00000345042|hu_hu|hu_hu_hu_mus_False|38_88 (ssRNA)
RNA: GGGAGUUCUACAGUCCGACGAUCUCAUUCCCACCCUCCACAGAAAGGCUGCUUAACAACUCUCAUGUGGUGACACAGCGCUACAGUCCUGAUGCUCACAGAAUAGUAGAGAUGCCUCAGUGAUUUAAGUUGAAAGCAGGACACCAACAGAGGAUUGAGCAUCA
B10: 112498940_112499737_1378_CDS_ENSMUSG00000021277_ENSMUST00000021706|mouse|control|control (ssRNA)
RNA: GGGAGUUCUACAGUCCGACGAUCCAUCUGGUCAUGCCGGCUCAGCUGGGACUCCAGCAAGCCUGUGUUGCGAGCCGCCUGCCCCGCACUUUUGUCUACGCUCUCCAGCUCAGUCACUCGGUUCUGGAGGGACUCCACACUGCUCAACAGAGGAUUGAGCAUCA
B11: chr2:66073698:66073699:-_ENSMUSG00000034848_ENSMUST00000102718|mus_mus|FALSE|FALSE (ssRNA)
RNA: GGGAGUUCUACAGUCCGACGAUCCUGCUGGAAUUCACUGAAGAACUCCAACUGCUGGUCUGCAUCUUGCAACUGCCCCUCUAUUAACUGACAUCGGAUAAGUCCGGUGACAGCAGAGAUGUUGCUCUCAUUCAGCGUCAUGGCCAACAGAGGAUUGAGCAUCA
B12: 139257338_139257458_3966_3pUTR_ENSG00000064393_ENST00000406875|human|control|control (ssRNA)
RNA: GGGAGUUCUACAGUCCGACGAUCGGUUUUUUGUUAUUGACUUUUUUUUUUUCCUUUUUCUUUUUUAAAAUAAAAACCAUAGAUUUCCCACCCUCUUUAAUCCCUUCCUUUUAAAAAUGUUCUCUUCUCUGCUCUACGUCCUCCCAACAGAGGAUUGAGCAUCA
B13: chr4:131761308:131761309:-_ENSMUSG00000040025_ENSMUST00000102570|mus_hu|FALSE|FALSE (ssRNA)
RNA: GGGAGUUCUACAGUCCGACGAUCAGCUGACUGUCCAUCAAUCAUGGCUCCACCUAAGGAGCUAGGUGCAUAAGCAUAAUUGCUACUAUAUCCAGAGCUCUGAGUAGACUGUCCCUGAGAACUGUUAUUUCCCCAUGCUGAGAACAACAGAGGAUUGAGCAUCA
B14: 40938855_40940850_1698_CDS_ENSMUSG00000028423_ENSMUST00000098143|mouse|control|control (ssRNA)
RNA: GGGAGUUCUACAGUCCGACGAUCAGACUUUCCCACAUCGGUUCCACACAACACAUCUCGGGAGGUGCUGCCACAGUAGCACACCUGGUUCAGUAUGAUCCGACAAGGCUGGCAUUGACCCCCAUGGCACAGCUCAGCACAGUGCAACAGAGGAUUGAGCAUCA
B15: chr7:141441981:141441982:+_ENSG00000106028_ENST00000265304|hu_mus|hu_hu_hu_mus_False|18_18 (ssRNA)
RNA: GGGAGUUCUACAGUCCGACGAUCCUCAUGUCUUACAAACUGACGAAAUACCUGUAACACAGGUCUUCGAAACAUGGCUUCUGUUUUUCUUACAACCUAAUCUUUAGGCUUUUCCUACCUGACGAUCAGAAAAGAGAAAAAUGACAACAGAGGAUUGAGCAUCA
B16: chr2:130369808:130369809:+_ENSMUSG00000027303_ENSMUST00000028769|mus_hu|FALSE|FALSE (ssRNA)
RNA: GGGAGUUCUACAGUCCGACGAUCGUUGGCUGGAAGGUUUCCAGUCCGCAUCUUGUCAUUCUGGAUUUUGAUUGAUGUUAACUUCUUAAACUCCUCCUCUAAUCCAUUGUUGCUGGUCCCUGGGAUUUUGUUGUAAAUUUUCUGCAACAGAGGAUUGAGCAUCA
B17: chr22:38882006:38882007:-_ENSG00000100201_ENST00000396821|hu_mus|motif|central (ssRNA)
RNA: GGGAGUUCUACAGUCCGACGAUCUGGAGGAGGGGGAGGGGGAGGGGGAGGGUACUGGUAAGCAGUCUGCCCCAUGUAGCCGGUCAUAUUGGUAGCUCCUGGAGGCUGUGCAAACUGCUGUGACAUCAGUGGCUGUGGCUGCUGCAACAGAGGAUUGAGCAUCA
B18: 25105453_25107290_353_CDS_ENSMUSG00000006471_ENSMUST00000100329|mouse|control|control (ssRNA)
RNA: GGGAGUUCUACAGUCCGACGAUCUAUGUUGAGCUCCUCAGCCCCUAUGCUGGGGACCUCCUGAAGAAACUGAAAGAUGAACUUGGAGGGCAAGUUGGCAUAUGAGGAAUCCCCGAGGCCUAGGACAGCAAAAUCCAUUUGACACAACAGAGGAUUGAGCAUCA
B19: chr2:179515052:179515053:+_ENSMUSG00000000305_ENSMUST00000000314|mus_hu|mus_mus_mus_hu_False|1_68 (ssRNA)
RNA: GGGAGUUCUACAGUCCGACGAUCGCUGUCCCAUGCAGUCACCGUGAACGCCACCUGCUCGGAGGGGAUCUUCAACUCCCGGGUGGCGAAGACUGUCCCAUCUGCCCCAACUUUGAAGUCCAUGCUGUUGGUCUCAUACUGCAUCAACAGAGGAUUGAGCAUCA
B20: chr9:49312907:49312908:-_ENSMUSG00000039542_ENSMUST00000166811|mus_mus|FALSE|FALSE (ssRNA)
RNA: GGGAGUUCUACAGUCCGACGAUCAGCUGGCAUUUGGCAUGCUUCCUAAGAAACAGGAGUCCCCGUGGGAACUGAACUCAGCUAGCCAGAGUGCCACACUCCGCAUAUGGAACAAACACAAACUGAACGGAAAGUAUAACUUAUCAACAGAGGAUUGAGCAUCA
B21: 165208209_165208784_503_CDS_ENSMUSG00000017667_ENSMUST00000103084|mouse|control|control (ssRNA)
RNA: GGGAGUUCUACAGUCCGACGAUCCAAGUUUUCCACUACCCAGGGCUCUUUUCCUUGCUCCAGUUUUAAGAUCACAUCUGGUUUGCUCACAUGAAGCCCCACCGCGAUGAGGUUACUGUAGGUCUCCAGCAUCACAUCCCUGUACAACAGAGGAUUGAGCAUCA
B22: chr4:95690885:95690886:+_ENSMUSG00000028572_ENSMUST00000156910|mus_mus|mus_mus_mus_hu_False|98_108 (ssRNA)
RNA: GGGAGUUCUACAGUCCGACGAUCUUUAUUUUUAGAAAAUGUUAAAUCUAAAAUAUUUUCAAAGGCUUAUUUUAUUUUACCAGAAGUCACAGGCAAGCAGACACUACAAGAAUAUAUGAAAAUGAAACUCAACAAUAUAACUGUCAACAGAGGAUUGAGCAUCA

The target in this test is T1, UNK ZnF1-3 (human, UniProt Q9C0B0 31-174).
T1 sequence: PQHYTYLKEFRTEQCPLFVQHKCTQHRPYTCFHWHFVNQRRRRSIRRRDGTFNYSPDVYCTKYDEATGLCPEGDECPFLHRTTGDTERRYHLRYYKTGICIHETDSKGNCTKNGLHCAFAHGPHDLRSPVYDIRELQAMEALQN
The experiment in a line: nsRBNS (natural sequence RNA bind-n-seq); RBNS binding buffer (assumed for nsRBNS): 25 mM Tris pH 7.5, 150 mM KCl, 3 mM MgCl2, 0.01% Triton X-100, 500 ug/ml BSA, 20 U/ml SUPERase-In, 4 C; UNK is unkempt and MSI1 is Musashi-1; names of the RNAs are library labels; protein concentration not given here; high values mean tight binding.
B1 yielded a binding signal of 0.62 enrichment R. With B2, the binding signal amounted to 1.18 enrichment R. Molecule B3 yielded a binding signal of 0.936 enrichment R.

For B4, the binding signal was 0.65 enrichment R. The result for B5 reads 0.402 enrichment R; that for B6, 0.933 enrichment R; that for B7, 1.21 enrichment R.

Molecule B8 registered a binding signal of 0.745 enrichment R.

Consider B9, for which the binding signal worked out at 1.26 enrichment R. The result for B10 reads 0.8 enrichment R; that for B11, 0.875 enrichment R; that for B12, 1.43 enrichment R. The molecule B13 displayed a binding signal of 1.13 enrichment R. The result for B14 reads 1.05 enrichment R. In the case of B15 it was 0.592 enrichment R; in that of B16, 0.345 enrichment R. Take B17: the binding signal was found to be 1.33 enrichment R. In the case of B18 it was 1.18 enrichment R. In the case of B19 it was 0.733 enrichment R; in that of B20, 0.886 enrichment R. The result for B21 reads 0.771 enrichment R; that for B22, 1.79 enrichment R.
